Laboratory results from the supplement of paper PMC11417369.
± gives the standard deviation of the averaged measurements. The list shows a part of the results.

tested on: PfAP2-EXP AP2 domain (GST-tagged); experiment: gcPBM binding intensity (ln(normalized median fluorescence intensity)); higher = stronger DNA binding
How it was run: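 Binding intensity is defined as the maximum Masliner-normalised natural-log median intensity across replicate spots for either probe orientation. It was measured on an Agilent 4 × 180k array of primer-extended double-stranded 36-bp intergenic genomic probes and negative controls, to which GST-tagged P. falciparum DNA-binding domains made in E. coli were applied for 1 h in 1× PBS with 1% milk, 0.2 mg/ml BSA, 0.5% salmon testes DNA and 0.03% Triton X-100. Detection was by Alexa488 anti-GST antibody and scanning at 488 nm.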

Sequence	gcPBM binding intensity (ln)
ATATATAAATATATTACACACTTTTTCTTTTTTTTT [CACACA_site7332]	8.41 ± 0.42
TTATTTTAATATAAAATACACACTACTATTATAAAT [CACACA_site1470]	8.3 ± 0.34
TAATTATTAAAACATTGTACATTATTATAAACAATT [XGTACX_site4489]	8.22 ± 0.31
TTTTCCATAAGAATTACACACAGAAAGGATAAGTAT [CACACA_site105]	8.78 ± 0.27
AAACAGCATGGTATACCTATAAAATATATATACTAA [GTGCAC_negctrl_site39]	8.53 ± 0.45
CTTATATTAATTATTACACACATATTTATAAATGCA [CACACA_site6501]	8.52 ± 0.34
ATTTGTTACGGACATGCATGCGAATCAGGGTATATA [TGCATGCA_site154]	10.1 ± 0.28
TCACCTATTTTTAACTGTACTGAAATGATATATATA [XGTACX_site1366]	8.73 ± 0.47
TAATGAAATTGTAGTAGTACCTTCTTATAAATAAAA [XGTACX_site6747]	8.16 ± 0.42
TAAGAAAAAAAAAAAAAAAAAAAAAAAAAAAAAAAA [CACACA_negctrl_site760]	7.95 ± 0.45
TAAAAATATTTTCATTGTACATATATATAAATATAT [XGTACX_site1123]	8.4 ± 0.33
TATAAAAAAAAAAAATATATATATATATAAATATAA [TGCATGCA_negctrl_site367]	8.2 ± 0.31
TACATATATATATATATATATATATATATCATTATG [XGTACX_negctrl_site293]	8.91 ± 0.11
TTGAGGAAATAACAGTGTACAAACAAATTATTACCA [XGTACX_site7082]	8.59 ± 0.35
GTTCAATTTTTAGGAAGTACAAAAAAAAAAAAGAAA [XGTACX_site7286]	8.6 ± 0.46
ATGGTACATACATACACACACACAAAAAAAAAAAAA [CACACA_site1578]	8.21 ± 0.59
TATATTAGTGTTGACACACACAAAAAAAAAAAAAAA [CACACA_site1396]	8.29 ± 0.5
TATATTTGTATTGTTTGTACTTATATGAATTTATAT [XGTACX_site4228]	8.62 ± 0.41
CAAACCTATATACAAACATGCAATCCACATATTGGT [TGCATGCA_site756]	8.57 ± 0.44
TTTATTGACAATTTATGTACATATAATTGAAAAATA [XGTACX_site6634]	8.57 ± 0.3
GAATGGACGTTAGGGGGTACGTATAAAATTTATCAA [XGTACX_site683]	9.72 ± 0.44
TTTGTGATATTATATTGTACCCTATATTTATTATAA [XGTACX_site4240]	8.66 ± 0.34

Sequence	gcPBM binding intensity (ln)
GTGGAACGTATATTTTCACACACTCTCAAAAGTACA [CACACA_site8722]	8.43 ± 0.44
ATGTTGCACAGTGGAAGAATTAAAAATAAATAAATA [XGTACX_negctrl_site581]	8.62 ± 0.24
AAATAATGTTTGAATTGTACACATATTTGTGTTTCT [XGTACX_site4603]	8.43 ± 0.2
AATTTTTGTATTTTTAGTACTTAATTTCAAAATAAC [XGTACX_site4234]	8.39 ± 0.38
AATATTATAAATGTCACACATATATTCAAATATATA [CACACA_site4736]	8.29 ± 0.38
ATGAACATATCAATTCTCAAAATAGGATGAGAGCAT [CACACA_negctrl_site230]	8.55 ± 0.37
GTGGAACATATGAACTCACACACATTTTCACTTAAA [CACACA_site3683]	8.27 ± 0.33
ATATAAGGATTAATATGTACATATATATATATATTT [XGTACX_site1390]	8.41 ± 0.31
TTTGTATATTATTTTAGTACATAACATTGAAGATAT [XGTACX_site6680]	8.47 ± 0.3
TATTTTGAAACTAAAAGACATAGAGAAAACAAAAAA [CACACA_negctrl_site1306]	8.91 ± 0.54
GACATTGATACCAGTAGTACCTATAGATGTTTGTTT [XGTACX_site5736]	8.66 ± 0.35
TTATGGAATAATCACGTACACACAAGAAAAAAAAAA [CACACA_site526]	8.78 ± 0.44
ATTATATATAAGAAGAGTACTGAATATGTGCAATAT [XGTACX_site4471]	9.35 ± 0.071
TTATAGAAAATGGAATAGAATGGAATGGAAGAAATA [CACACA_negctrl_site1086]	9.07 ± 0.55
TATATACACCCACATACACACAAATAAAAAAACACC [CACACA_site3414]	9.24 ± 0.5
ATATTAGTAACACAGACACACAAAAAAAAAAAAAAA [CACACA_site2176]	8.31 ± 0.66
TTTTTCTCTTTAAGGTGTACAATAATACAGTAACCA [XGTACX_site300]	8.57 ± 0.28
TTGTACGCAAAAAAAAAAAAAAAAAAATTAAAATTT [TGCATGCA_negctrl_site586]	8.04 ± 0.26
TTTTTTATTATCAAAACATGCATTTTTTAAATGGAA [TGCATGCA_site557]	8.43 ± 0.3
AGGAAAATACCTTAATGTACATAGAAAAGTAACATT [XGTACX_site8011]	8.62 ± 0.42
CACTTAACACAAGAGTGTACACATATATATATATAT [XGTACX_site686]	10.1 ± 0.53
GGGAAATATTGAAACACACACGAACGCACGTATTTC [CACACA_site6258]	8.46 ± 0.36

Sequence	gcPBM binding intensity (ln)
ATAATATTTTCTTCTTATTGAATGCTTTAAATTTAC [CACACA_negctrl_site1273]	8.68 ± 0.53
TTAAGAAGTTCTAAATGTACATACATAACCACGTTA [XGTACX_site7514]	8.41 ± 0.35
TTAAACCGTGGGAGCACACACACACCCCCACCCATA [CACACA_site331]	9.3 ± 0.45
ACAAATAAGTTTTGTAGTACTGTGTATATATATATA [XGTACX_site6901]	9.97 ± 0.3
TACTCAAAAATTAATTAGCATAATATATATAAAAAT [GTGCAC_negctrl_site613]	8.43 ± 0.38
GCATAAGAAAATAATTGTACAATTTACATACATAAA [XGTACX_site8286]	8.66 ± 0.45
TATATATGTATATATATAAATATATATATATATATA [TGCATGCA_negctrl_site605]	10.1 ± 0.26
TAATGAAATATACAGAGTACATTCTGTATATAGGAT [XGTACX_site7691]	8.46 ± 0.3
TATAAATATATATACACACACACATTAATACATATA [CACACA_site3488]	8.65 ± 0.48
CTTTTATTAAAATTCACACACATAAACTTTTATAAA [CACACA_site7027]	8.21 ± 0.38
AATATATACAATATATGTACATATATATACACATAT [XGTACX_site4190]	8.62 ± 0.31
ACAATAAAAATTTATGCATGTGAATTGAAAAAAAAA [TGCATGCA_site1037]	8.7 ± 0.31
CTTATATATATATCATGTACTTATGTATTTAAGAAT [XGTACX_site3307]	8.46 ± 0.34
AAATAAAACAAACACACACACACATACACAAAAAAA [CACACA_site3849]	8.61 ± 0.61
GTTATTGAAAAAATAGTGCAATATAACAAAGTAAAA	8.95 ± 0.23
TATATATTTCGGTGTGCACACTTTTTATTTTTATCC [CACACA_site1726]	9.13 ± 0.33
TATATATATATATGTACACACATATATACCTTTCAT [CACACA_site2679]	10.1 ± 0.27
GGAATGTAGGGTTTTACCAAAATAAAAATAACCATA [XGTACX_negctrl_site492]	8.6 ± 0.35
TAATTTCTTATGTATTGTACAAATAATATATGATAT [XGTACX_site611]	8.48 ± 0.35
ATAAAATACCTATAAACACACATATAAACAGACATA [CACACA_site7213]	8.81 ± 0.52
ATTTCACAGAAACACACACACAATATATTTCCTTTT [CACACA_site3904]	8.49 ± 0.54
GAAAAATGAAGAGAACAAAATTTTATGATATATATA [GTGCAC_negctrl_site231]	8.96 ± 0.35

Sequence	gcPBM binding intensity (ln)
TTTCATAAATAAATATGTACATAATTAATAATAAAT [XGTACX_site5882]	8.68 ± 0.39
CCTTGAACCCCACTAACACACACACCCACGCTCAGA [CACACA_site8976]	8.7 ± 0.54
ATTACAAAAAAAAAAAAAAAAAAAAAAAAAAAAAAA [CACACA_negctrl_site448]	7.95 ± 0.33
TATACATAGATATATACACACATATATTTATATACA [CACACA_site6328]	8.26 ± 0.38
ATATGTATATATATTTGTACGTAAAATGAAATCTAA [XGTACX_site213]	9.19 ± 0.45
AAATAGTATATAATATGTACATACATAAAAATGTAT [XGTACX_site3524]	8.36 ± 0.3
ACCTATGTATATTATACACACTCCAAACTATTATTT [CACACA_site1817]	8.82 ± 0.44
TTTTGTTTGTTCGTGACTACATTATGTTGTAAATAC [CACACA_negctrl_site604]	8.78 ± 0.38
AAAGGTAAGCAGAATAGTACAGAAGAAAAAATATTT [XGTACX_site2941]	8.97 ± 0.57
ATCAAAAAAAAAAAATTTTTTTTTTTGTTTGTTTCC [CACACA_negctrl_site1042]	8.24 ± 0.58
TATCCTATAAATAATACATGCATATATATATATATT [TGCATGCA_site638]	8.64 ± 0.35
CAACATTTGAGACACACACACATACAAACAAACAAA [CACACA_site7538]	8.78 ± 0.53
CCAATAATATATAGAAGTACAGAAAAAAAAAAAAAA [XGTACX_site2049]	8.4 ± 0.57
AAGAAAATTAAATTAACACACATAAATATGTAAATA [CACACA_site6882]	8.24 ± 0.26
CCCTCTTCTCTCATATCACACATGTCATCCTTATCC [CACACA_site5078]	9.15 ± 0.42
ATCAAAATGTTAAAGATACACACCTAACAAACACAA [CACACA_site955]	8.74 ± 0.42
GCACGCTGTATGAATGCACACATTCATAGAATTGCT [CACACA_site8852]	8.38 ± 0.26
TTATATATATAGAAGTGTACAAAATTTCCTAGACCT [XGTACX_site3900]	8.71 ± 0.28
TATAAATATTTATAAACACACAAATATATATATTTA [CACACA_site27]	8.22 ± 0.28
TATCGACATTTCATTTGTACATATATACATATATTT [XGTACX_site3346]	8.64 ± 0.42
GATGCTAAAATTTATACACACAAAAAAAAAAAATTC [CACACA_site3284]	8.47 ± 0.46
AAAAAAAAAAAATATACACACACACCGACACATAAA [CACACA_site9270]	8.71 ± 0.52
